Measured values taken from the supplement of paper PMC10115384.
Human monoclonal antibodies (heavy:light variable regions, translated from the printed DNA). IC50 against SARS-CoV-2 spike pseudoviruses, on VSV particles in 293T-ACE2 cells (24 h) or MLV particles in HeLa-ACE2 cells (72 h); lower = stronger; >1.0 µg/ml as printed. No active / inactive call per row; the paper counts an IC50 of 0.4 µg/ml or less on any variant as neutralizing. Only 98 of the paper's 459 antibodies have neutralization values; the two systems are not on one scale.

Assays:
Experiment in all cases: pseudovirus neutralization IC50; higher = weaker neutralization
[1] = molecular target: SARS-CoV-2 Delta spike pseudovirus; conditions: system: VSV particle, 293T-ACE2 cells
Experimental: (§1)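 Single-round reporter pseudovirus mixed with dilutions of yeast-made human IgG and put on ACE2-bearing cells; IC50 from the dose curve.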

[2] = molecular target: SARS-CoV-2 index (Wuhan-Hu-1) spike pseudovirus
Experimental: as §1

[3] = molecular target: SARS-CoV-2 Omicron BA.1 spike pseudovirus; conditions: system: MLV particle, HeLa-ACE2 cells
Experimental: as §1

[4] = system: VSV particle, 293T-ACE2 cells
[5] = system: MLV particle, HeLa-ACE2 cells

Row | Binder | pseudovirus neutralization IC50 [1] [mg/L] | pseudovirus neutralization IC50 [2, 4] [mg/L] | pseudovirus neutralization IC50 [3] [mg/L] | pseudovirus neutralization IC50 [2, 5] [mg/L]
1 | ADI-67135 (protein) chain 1: EVQLVESGGGLVQPGRSLRLSCAAFGFTFEDYTMQWVRQAPGKGLEWVSGISWNSGSTGYAEFVKGRFTISRDNAKNSLYLQMNSLGGEDTAFYYCAKGGEYSSRWYLRESYFDYWGQGTLVTVSS chain 2: DIVMTQTPLSLSVTPGQPASISCKSSHSLLHSDGKTRLYWYLLKPGQPPQLLIYEVSNRFSGVPDRFSGSGSGTDFTLKISRVEAEDVGVYYCMQSIQVPLTFGGGTKVEIK | > 1 | 0.0025 | – | –
2 | ADI-67941 (protein) chain 1: QVQLVESGGGVVQPGRSLRLSCAVSGFTFSTYGMHWVRQAPGKGLEWVALIWYDGSEKKYSDSVKGRFTISRDNSKNTLYLHMNSLRAEDTAVYYCARVYCSRGLCHHEAYYYYAMGVWGQGTTVTVSS chain 2: QSALTQPASVSGSPGQSITISCTGTSNDVGAYTYVSWYQQHPGKAPKLMIYDVSNRPSGVSNRFSGSKSGNTASLTISGLQAEDEADYYCSSYTSSGTLYVFGTGTKVTVL | – | > 1 | – | –
3 | ADI-67731 (protein) chain 1: EVQLVESGGGLVQPGGSLRLSCAASGFMFNIHNMNWVRQAPGKGLEWVSYISGSSSTMYYADSVKGRFTISRDNAKNSLYLQMNSLRAEDPAVYYCAGSNYYDGNGPDYWGQGTTVTVSS chain 2: DIQMTQSPSSLSASVGDRVTITCRPSQGIRNDLGWYQQKPGKAPKRLIYAASSLQSGVPSRFSGSGSGTEFTLTISSLQPEDFATYYCLQYNTYPSLTFGGGTKVEIK | – | > 1 | – | –
4 | ADI-67770 (protein) chain 1: EVQLVESGGGLVQPGGSLRLSCAASGFTFSSYAMSWVRQAPGKGLEWVSTISASGGSTNYADSVKGRFTISRDISKNTLYLQMNSLRAEDTAVYYCAKASIVVLPAAIFWGKGTTVTVSS chain 2: EIVMTQSPATLSVSPGERATLSCRASQSVSSNLAWYQQKPGQAPRLLIYGASTRATGIPARFSGSGSGTEFTLTISSLQSEDFAVYYCQQYNNWPRGTFGQGTKVEIK | – | > 1 | – | –
5 | ADI-67826 (protein) chain 1: QVQLVESGGGVVQPGRSLRLSCAASGFTFSDYGMHWVRQAPGKGLEWVTFLWYDGSNKDYADSVKGRFTISRDNSKNTLYLQMNSLRAEDTAVYYCARDPQRAYYYMDVWGKGTTVTVSS chain 2: QTVVTQEPSFSVSPGGTVTLTCGLSSGPVSTSYYPSWYQQTPGQAPRTLIYSTITRSSGVPDRFSGSILGNKAALTITGAQADDESDYYCVLYMGGGIWVFGTGTKVTVL | – | > 1 | – | –
6 | ADI-67124 (protein) chain 1: QVQLQESGPGLVKPSQTLSLTCTVSGGSISSGGYYWTWIRQHPGKGLEWIGYIHYSGNTYYNPSLKSRVSISVDTSKNQFSLQLSSVTAADTAVYYCAREGDFAFFDYWGQGTLVTVSS chain 2: EIVLTQSPATLSLSPGERATLSCRASQSVRNYLAWYQQKPGQAPRLLIYDASNRATGIPARFSGTGSGTDFTLTISSLEPEDFAVYYCQQRFNWPPLTFGGGTKVEIK | > 1 | > 1 | – | –
7 | ADI-67890 (protein) chain 1: QVQLQESGPGLVKPSETLSLTCTVSGGSITSHYWSWIRQPAGKGLEWIGRLYTSGTTNYNPSLKSRITMSVDTSKNQLSLKLSSVTAADTAVYYCARGGGSHRVYDPYYGMDVWGQGTTVTVSS chain 2: SYELTQPPSVSVSPGQTARITCSGDALPKQYAYWFQQKPGQAPVLVMYKDIGRPSGIPERFSGSSSGTTVTLTISGVQAEDEADYYCQSEDSSGTYVVFGGGTKLTVL | – | > 1 | – | –
8 | ADI-67485 (protein) chain 1: QVQLVQSGAEVKKPGSSVKVSCKASGGTFINSAISWVRQAPGQGLEWMGGLVAILGTPNYAQKFQGRVTITADESRSTAYMELSSLRSEDTAVYYCATGVRYCDTTSCRASYFDFWGRGTLVTVSS chain 2: EIVLTQSPGTLSLSPGERATLSCRTSQSVSSSHLAWYQQKPGQAPRLVIYGASSRATGIPDRFSGSGSGTDFTLTISRLEPEDLAVYYCQQYGSSPLTFGQGTKLEIK | 0.27 | 0.0148 | 4.21 | 0.0222
9 | ADI-67947 (protein) chain 1: QVTLKESGPALVKPTQTLTLTCTFSGYSVSTYGMRMSWIRQPPGKALEWLASISWDDDKFYNSSLRTRLTISKDTSKNQVILTMTNMDPVDTATYYCARIGCSTTSCWWYFDVWGRGTLVTVSS chain 2: QSALTQPRSVSGSPGQSVTISCTGTSSDVGGYDYVSWYQHHPDKAPKIIIYDVTKRPSGVSDRFSGSKSGNTASLTISGLQAEDEADYYCCSYAGGYSVLFGGGTKLTVL | – | > 1 | – | –
10 | ADI-67129 (protein) chain 1: QVQLVQSGAEVKKPGASVKVSCKASGYTFTDYFFHWVRQTPGQGLEWMGWINPTSGGTKYAQKFQGWVTITRDTSITTAYLELTRLKCDDTAIYYCARDRPLYYRSDYGMDVWGQGTTVTVSS chain 2: QSALTQPASVSGSPGQSITISCAGTSSDVGAYNYVSWYQQHPGKAPKLMIYDVSTRPSGVSNRFSGSKSGNTASLTISGLQAEDEASYYCSSYTINSTVLFGGGTKLTVL | > 1 | – | – | –
11 | ADI-67998 (protein) chain 1: QVQLVESGGGVVQPGRSLRLSCAASGFTFSDYAMHWVRQAPGKGLEWVAVISNDGSGKFYADSVKGQFTISRDNSQNTLFLQMNSLRADDTAVYYCAKDTRQDWEPILEYWGQGTLVTVSS chain 2: DIQMTQSPSSLSASVGDRVTITCRASQSISRYLNWYQQKPGKAPKLLIYAASTLQSGVPSRFTGSGSGTDFTLTISSLQPEDFATYYCQQSYTTLTLTFGGGTKVEIK | > 1 | – | – | –
12 | ADI-67746 (protein) chain 1: EVQLVESGGGLVQPGGSLRLSCVASGFTFSTYDMHWVRQTTGKGLEWVSTIGTAGDTYYLESVKGRFTISRENAENSLSLQMNSLRAGDTAVYYCTRGGATYDSGGSQVPFYFYYYMDVWGKGTTVTVSS chain 2: DIQMTQSPSSLSASVGDRVTISCRASQSISSYLNWYQQKPGKAPKLLIYAASNLQSGVPSRFSGGGSGTDFTLTISSLQPEDFATYYCQQSYSMPELTFGGGTKVEIK | – | > 1 | – | –
13 | ADI-67471 (protein) chain 1: QITLKESGPMLVKPTQTLTLTCTFSGFSLSTSGVGVGWIRQPPGKALEWLALIYWDDNKRYSPSLRSRLTITKDTSKNQVVLTMINMDPVDTATYYCAHSPYLTRGYNTYDVGYFFDYWGQGTLVTVSS chain 2: DIVMTQSPDSLAVSLGERATINCKSSQSVLYSSNNKNFLAWFQQKPGQPPELLIYWASTRESGVPDRFSGSGSGTDFTLTISSLQAEDVAVYYCQQYYSTPPIFGGGTKVEIK | > 1 | 0.431 | – | –
14 | ADI-67657 (protein) chain 1: EVQLLESGGGLVQPGGSLRLSCAASGFPFSTYAMSWVRQAPGKGLEWVSAIGGSGSDTYYADSVKGRFTISRDNSENTLFLQMNSLRAEDTAVYYCAKDRLRTSSLQPMPFFDYWGQGTLVTVSS chain 2: DIVMTQSPDSLAVSLGERATINCKSSQSVLYSSNNKNYLAWYQQQPGQPPRLLIYWTSTRESGVPDRFSGGGSGTDFTLTISSLQAEDVAVYYCQQYYSAPYTFGQGTKVEIK | > 1 | 0.0007 | 2.14 | 0.00269
15 | ADI-67677 (protein) chain 1: QVQLVESGGGVVQPGRSLRLSCAAYGFTFSNYGMHWVRQAPGKGLEWVAVISYDGSNNYSADSVKGRFTISRDNSKNMLHLQMNSLRAEDTAVYYCATDYGDYGHYQYYYYMDVWGKGTTVTVSS chain 2: EIVLTQSPATLSLSPGERATLSCRASQSVGSYLAWYQQKPGQAPSLLIFDAFNRAAGIPARFSGSASGTDFTLTISSLEPEDFAVYYCQQRSTWPLTFGGGTKVEIK | > 1 | > 1 | – | –
16 | ADI-67230 (protein) chain 1: QVQLQESGPGLVKPSGTLSLTCAVSGGSISSSNWWSWVRQPPGKGLEWIGEIYHSGSTNYNPSLKSRVTISLDRSKNQFSLKLISVTAADTAVYYCAREGPSLGVGFYYGMDVWGQGTTVTVSS chain 2: EIVLTQSPGSLSLSPGERATLSCRASQSLTSTYLAWYQQKPGQAPRLLIYGASSRATGIPDRFSGSGSGTDFTLTITRLEPEDFAVYFCQQYGASRTFGQGTKVEIK | > 1 | > 1 | – | –
17 | ADI-67231 (protein) chain 1: EVQLVESGGGLVQPGGSLRLSCTVSGFTFNSYWMSWVRQAPGKGLEWVANIRHDGSEKYYVDSVKGRFTISRDNAKNSLYLQMNSLRAEDSAVYYCARQSIYHDFRSGVGYSYYYTMDVWGQGTTVTVSS chain 2: SSELTQDPAVSVALGQTVTITCQGDSLRIYFATWYQQKAGQAPVLVIYGKNNRPSGIPDRFSGSRSGDTASLTITGAQAEDEADYYCSSRDSSGNYFVFGTGTKVTVL | > 1 | > 1 | – | –
18 | ADI-67964 (protein) chain 1: QVTLKESGPVLVKPTETLTLTCTVSGFSLSNVRMSVSWIRQPPGKALEWLAHILSNDEKFYSTSLKSRLTISKDTSKSQVVLTVTNVDPADTGTYYCARLYEGSGRDSNNDAFDFWGQGTMVTVSS chain 2: DIQMTQSPSSLSTSVGDRVTITCRASQNISNYLNWYQQKPGKAPKLLIYAASSLQSGVPSRFSGTGSGTDFTLTISSLQPEDFGTYYCQQSYSSRTFGQGTKVEIK | > 1 | – | – | –
